Laboratory results published in the supplement of paper PMC6451100.
Some of the results follow. These are enrichments in a pooled selection; single values are uncertain.

test system: Drosophila AGO1 (endogenous, S2-R+ lysate); experiment: AGO1 loading enrichment factor (IP read count / input read count, not library-size normalised) (ratio); higher = more efficient loading into AGO1; conditions: randomized region: 5' 5N of miR-317 loop
Method: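 HISSA: 5'-phosphorylated, 32P-labelled 20-nt ssRNA oligos (miR-317 loop, first 5 nt randomized, constant 3' part TGAAATGCAAGCAAG as printed in methods; DNA letters for RNA) incubated 1 h at 25°C in S2-R+ cell lysate. Endogenous AGO1 was immunopurified with anti-AGO1 and bound oligos were sequenced after splinted ligation.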
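Also: S2-R+ lysate came from cells stably expressing FLAG-tagged AGO2, enrichment per 5N variant computed with FASTAptamer, reads lacking the constant 3′ segment discarded.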

| Sequence | AGO1 loading enrichment factor |
| --- | --- |
| ATGTTTGAAATGCAAGCAAG | 0.0719 |
| ATCATTGAAATGCAAGCAAG | 0.177 |
| GAGAGTGAAATGCAAGCAAG | 0.243 |
| TTTTATGAAATGCAAGCAAG | 0.32 |
| ATAGGTGAAATGCAAGCAAG | 0.139 |
| TGCCTTGAAATGCAAGCAAG | 0.0619 |
| AGCGATGAAATGCAAGCAAG | 0.625 |
| TTACTTGAAATGCAAGCAAG | 0.555 |
| TAGGTTGAAATGCAAGCAAG | 0.232 |
| CTCAGTGAAATGCAAGCAAG | 0.0419 |
| CTACATGAAATGCAAGCAAG | 0.0801 |
| ACGTCTGAAATGCAAGCAAG | 0.246 |
| CCAAATGAAATGCAAGCAAG | 0.173 |
| GTCGTTGAAATGCAAGCAAG | 0.122 |
| TAAATTGAAATGCAAGCAAG | 0.399 |
| GGACCTGAAATGCAAGCAAG | 0.707 |
| TAAAGTGAAATGCAAGCAAG | 0.413 |
| GGACGTGAAATGCAAGCAAG | 20.6 |
| CAGTGTGAAATGCAAGCAAG | 0.164 |
| TAGGCTGAAATGCAAGCAAG | 0.125 |
| AGCAATGAAATGCAAGCAAG | 0.0858 |
| CGCCTTGAAATGCAAGCAAG | 0.00535 |
| CTAGCTGAAATGCAAGCAAG | 0.00455 |
| CAGCATGAAATGCAAGCAAG | 0.0947 |
| CAAGGTGAAATGCAAGCAAG | 0.078 |

| Sequence | AGO1 loading enrichment factor |
| --- | --- |
| ACTACTGAAATGCAAGCAAG | 0.282 |
| TCTCTTGAAATGCAAGCAAG | 0.129 |
| ACGAATGAAATGCAAGCAAG | 0.19 |
| CGGGGTGAAATGCAAGCAAG | 1.49 |
| CACTCTGAAATGCAAGCAAG | 0.0428 |
| CAGCCTGAAATGCAAGCAAG | 0.0491 |
| TTTCTTGAAATGCAAGCAAG | 1 |
| GCGGATGAAATGCAAGCAAG | 2.08 |
| TAACCTGAAATGCAAGCAAG | 0.525 |
| ACTTCTGAAATGCAAGCAAG | 0.118 |
| GGAATTGAAATGCAAGCAAG | 0.115 |
| AAAGATGAAATGCAAGCAAG | 0.143 |
| CACCCTGAAATGCAAGCAAG | 0.235 |
| CCCAGTGAAATGCAAGCAAG | 0.0884 |
| TGAAGTGAAATGCAAGCAAG | 0.151 |
| CACTATGAAATGCAAGCAAG | 0.113 |
| TTGTGTGAAATGCAAGCAAG | 0.0979 |
| TAATGTGAAATGCAAGCAAG | 0.254 |
| CGTATTGAAATGCAAGCAAG | 0.0607 |
| CGACGTGAAATGCAAGCAAG | 5.15 |
| TCCAGTGAAATGCAAGCAAG | 0.434 |
| TCCCATGAAATGCAAGCAAG | 0.859 |
| CAAACTGAAATGCAAGCAAG | 0.0817 |
| GATGATGAAATGCAAGCAAG | 0.391 |
| TTATGTGAAATGCAAGCAAG | 0.241 |

| Sequence | AGO1 loading enrichment factor |
| --- | --- |
| GAAAATGAAATGCAAGCAAG | 0.116 |
| ATTTCTGAAATGCAAGCAAG | 0.0822 |
| AACCGTGAAATGCAAGCAAG | 0.489 |
| TCCGATGAAATGCAAGCAAG | 0.25 |
| TGTCGTGAAATGCAAGCAAG | 0.111 |
| ATTCATGAAATGCAAGCAAG | 0.416 |
| TATTTTGAAATGCAAGCAAG | 0.355 |
| CTCGGTGAAATGCAAGCAAG | 0.0759 |
| CCTCGTGAAATGCAAGCAAG | 0.242 |
| GCTGTTGAAATGCAAGCAAG | 0.06 |
| TAAAATGAAATGCAAGCAAG | 0.387 |
| TGTCCTGAAATGCAAGCAAG | 0.226 |
| GTGTCTGAAATGCAAGCAAG | 0.122 |
| AGCGGTGAAATGCAAGCAAG | 0.105 |
| TCTATTGAAATGCAAGCAAG | 0.434 |
| TCATATGAAATGCAAGCAAG | 0.247 |
| AATTTTGAAATGCAAGCAAG | 0.239 |
| TGCTCTGAAATGCAAGCAAG | 0.036 |
| GCTCGTGAAATGCAAGCAAG | 0.0121 |
| TGTAATGAAATGCAAGCAAG | 0.146 |
| GCTAGTGAAATGCAAGCAAG | 0.0298 |
| CATCATGAAATGCAAGCAAG | 0.317 |
| GAACGTGAAATGCAAGCAAG | 0.134 |
| TGCCATGAAATGCAAGCAAG | 0.237 |
| TTTGTTGAAATGCAAGCAAG | 1.2 |

| Sequence | AGO1 loading enrichment factor |
| --- | --- |
| TTCACTGAAATGCAAGCAAG | 1 |
| AACAATGAAATGCAAGCAAG | 0.22 |
| TGGGATGAAATGCAAGCAAG | 1.09 |
| AGTCTTGAAATGCAAGCAAG | 0.00421 |
| ACTAGTGAAATGCAAGCAAG | 0.153 |
| CGCTTTGAAATGCAAGCAAG | 0.0194 |
| GCTGATGAAATGCAAGCAAG | 0.0728 |
| AACTATGAAATGCAAGCAAG | 0.123 |
| CCGACTGAAATGCAAGCAAG | 0.818 |
| TGCTTTGAAATGCAAGCAAG | 0.012 |
| AATGCTGAAATGCAAGCAAG | 0.0411 |
| CGACCTGAAATGCAAGCAAG | 0.568 |
| CTAACTGAAATGCAAGCAAG | 0.079 |
| GCACGTGAAATGCAAGCAAG | 0.117 |
| ATGGCTGAAATGCAAGCAAG | 0.0472 |
| TGTACTGAAATGCAAGCAAG | 0.113 |
| GTTGCTGAAATGCAAGCAAG | 0.24 |
| GTAGCTGAAATGCAAGCAAG | 0.0419 |
| CGTGGTGAAATGCAAGCAAG | 0.18 |
| AGAGGTGAAATGCAAGCAAG | 0.444 |
| GTTCTTGAAATGCAAGCAAG | 0.00584 |
| TTCCATGAAATGCAAGCAAG | 0.306 |
| TTAGATGAAATGCAAGCAAG | 0.22 |
